Assay results published in PubChem BioAssay AID463173 (ICCB-Longwood Screening Facility, Harvard Medical School, 2010).
Hit rate of the full screen: of about 52,000 compounds, about 1,700 (3.3%) were called active. Cut-off read from the data, not from the text of the source: active = survival mostly below about 52% (no sharp cut-off); inactive = mostly above about 56%. Some of the results follow.

These molecules were tested on Wild type (assay: S. aureus survival, RN4220 and DeltatarO strains – OD600, teichoic acid synthesis inhibitors, primary screen (AID 463173)). Conditions: S. aureus RN4220 wild type/DeltatarO growth, OD600, 18 h, hits give low values, screened at 18.75 µg/mL (by protocol).

| Compound | survival |
| --- | --- |
| O=S(=O)(NCC(c1ccccc1)N1CCc2ccccc21)c1ccccc1 (stereo not drawn) | inactive: 83% |
| CC(NC(=O)CSc1nc(-c2cccc(Cl)c2)nc2cc(=O)[nH]n12)c1nc2ccccc2n1C (stereo not drawn) | inactive: 54% |
| COc1ccc(-c2nc3ccccc3s2)cc1NC(=O)c1cccc([N+](=O)[O-])c1C | inactive: 65% |
| NC(=O)NC(=O)c1nc2nonc2[nH]c1=O | inactive: 101% |
| Cc1ccc(Cn2c(CNC(=O)Cc3cccc([N+](=O)[O-])c3)nc3cccnc32)cc1 | inactive: 67% |
| CCCOc1ccc(NC(=O)CC2C(=O)N(c3ccc(F)cc3)C(=O)N2CC(C)C)cc1 (stereo not drawn) | inactive: 75% |
| O=C(NCc1cccs1)C1CCN(c2ccc(S(=O)(=O)N3CCOCC3)cc2Cl)CC1 | inactive: 102% |
| CCn1c(=O)cc(OCC(=O)N2CCN(c3cccc(Cl)c3)CC2)c2ccccc21 | inactive: 127% |
| Cc1ccc(S(=O)(=O)N2CCN(Cc3ccc4c(c3)OCO4)CC2)cc1 | inactive: 64% |
| CCc1ccc(-c2cc(C)no2)cc1S(=O)(=O)Nc1cc(OC)c(OC)c(OC)c1 | inactive: 83% |
| COc1ccc(C2=C(C)C(=NCc3ccc(OC(C)C)cc3)NS2(=O)=O)cc1 | inactive: 86% |
| Cc1ccc2c(c1)sc1nc(=O)n(-c3ccc(Cl)c(Cl)c3)c(=O)n12 | active: -4% |
| NC(=O)c1cc(N)ccc1N1CCOCC1 | inactive: 111% |
| COc1cc(C(=O)N2CCC(c3nc4ccccc4s3)CC2)cc(OC)c1OC | inactive: 84% |
| CCCCOc1ccc(CNC(=O)C2CCCN(c3nnc(-n4c(C)ccc4C)s3)C2)cc1 (stereo not drawn) | inactive: 70% |
| CC(=O)Nc1ccc(S(=O)(=O)Nc2cccc(-c3ccc(N4CCCCCC4)nn3)c2)cc1 | inactive: 59% |
| O=C(NC1CCN(C(=O)Nc2cccc(Cl)c2)CC1)C1CCCCC1 | inactive: 99% |
| CC(C)(C)NC(=O)CSc1nc(O)cc(=O)[nH]1 | inactive: 106% |
| COc1ccc(C(=O)NCCn2cc(SCC(=O)Nc3ccc(F)cc3)c3ccccc32)cc1 | inactive: 79% |
| CCNc1ccc(-c2nc(-c3ccncc3)no2)cc1[N+](=O)[O-] | inactive: 93% |
| CCn1cc(C(=O)NCCc2ccc(Cl)cc2)c(=O)c2cc(S(=O)(=O)N3CCCCCC3)ccc21 | inactive: 80% |
| Cc1nc(-c2ccc(S(=O)(=O)NCc3ccc(OC(C)C)cc3)cc2)co1 | inactive: 69% |

| Compound | survival |
| --- | --- |
| CCOC(=O)N1N=C(C)CC1(O)c1ccccc1 (stereo not drawn) | inactive: 107% |
| O=C(COc1ccccc1F)Nc1ccc2nc(SCC(=O)N3CCCC3)sc2c1 | inactive: 82% |
| CC(CN1CCOCC1)OC(=O)C1c2ccccc2Oc2ccccc21 (stereo not drawn) | inactive: 103% |
| COc1cc(NC(=O)Cn2cnc3sc(C)c(S(=O)(=O)N4CCC(C)CC4)c3c2=O)cc(OC)c1OC | inactive: 82% |
| Cc1ccc2c(=O)c(C(=O)c3ccccc3)cn(CC(=O)Nc3ccccc3C)c2n1 | inactive: 65% |
| Cc1cccc(OCC(=O)Nc2nonc2-c2ccc(Br)cc2)c1C | inactive: 79% |
| Cc1cccc(C)c1-n1ncc(C(=O)NCc2ccc3c(c2)OCO3)c1C1CCN(C(=O)OC(C)(C)C)CC1 | inactive: 131% |
| CCc1ccc(OCC(=O)N(Cc2ccc(C)cc2)Cc2ccco2)cc1 | inactive: 100% |
| CCOc1ccc(CC(=O)Nc2ccc3c(c2)N(C)C(=O)c2ccccc2S3)cc1OCC | inactive: 78% |
| O=C(COc1ccc(Cl)cc1)Nc1sc2c(c1C(=O)Nc1cccc(Cl)c1)CCCC2 | inactive: 148% |
| CC(=O)N1c2ccc(S(=O)(=O)NCC3CCC(C(=O)Nc4ccccc4C)CC3)cc2CC1C (stereo not drawn) | inactive: 111% |
| O=C(Nc1ccc(OC(F)(F)F)cc1)C1CCCN(S(=O)(=O)c2cccc3nonc23)C1 (stereo not drawn) | inactive: 83% |
| CCCCN(C)CCCNC(=O)c1cc(=O)[nH]c2ccc(S(=O)(=O)N3CCCCC3)cc12 | inactive: 73% |
| O=C(O)CCCN1C(=O)C(O)=C(C(=O)/C=C/c2ccccc2)C1c1ccccc1 (stereo not drawn) | inactive: 98% |
| COCCCNC(=O)CN1C(=O)COc2ccc(S(=O)(=O)N3CCCCCC3)cc21 | inactive: 77% |
| COc1ccc2c(c1)CCc1sc(NC(=O)c3ccc(Cl)cc3)nc1-2 | inactive: 44% |
| CCC1=Nc2cc(C(=O)NC(C)c3ccccc3)ccc2Sc2ccc(Cl)cc21 (stereo not drawn) | inactive: 94% |
| Cc1cccc(-n2cc(-c3ccccc3)c3c(NC(C)C)ncnc32)c1 | inactive: 153% |
| CC1CCN(S(=O)(=O)c2cn(CC(=O)Nc3ccc(F)c(Cl)c3)c(=O)c3ccccc23)CC1 | inactive: 69% |
| COc1ccc(-n2c(=O)c3ccccc3n(CC(=O)NCCc3ccccc3)c2=O)c(OC)c1 | inactive: 72% |
| Cc1ccc(NC(=O)CCc2c(C)nc3c(-c4ccccc4)c(C)nn3c2C)c(C)c1 | inactive: 81% |
| CN(Cc1ccccc1)C(=O)CCS(=O)(=O)c1cc(Br)cc2c1N(C(=O)C1CC1)CC2 | inactive: 84% |

| Compound | survival |
| --- | --- |
| O=C(CSc1nccn1-c1cccc(Cl)c1)Nc1cccc(C(F)(F)F)c1 | inactive: 74% |
| COc1ccccc1-c1ccc(=O)n(CC(=O)NC(C)(C)C)n1 | inactive: 103% |
| COC(=O)c1ccccc1NC(=O)CN(c1ccccc1OC)S(C)(=O)=O | inactive: 80% |
| Cc1ccc(NC(=O)CSc2nc(-c3ccc(F)cc3)nc3c2Cc2c(CO)cnc(C)c2O3)cc1C | inactive: 83% |
| O=C(COc1ccccc1F)Nc1ccccc1OCc1cc(=O)n2ccccc2n1 | inactive: 79% |
| CCCNC(=O)c1cc(-c2ccccc2)on1 | inactive: 106% |
| N#C/C(=C/c1ccc(-c2cc(C(=O)O)ccc2Cl)o1)C(=O)NCCc1c[nH]c2ccccc12 | inactive: 105% |
| CC(C)c1ccc(NC(=O)c2ccc(F)c(S(=O)(=O)N3CCCC3)c2)cc1 | inactive: 76% |
| CC1CCN(C(=O)Cn2cc(SCc3ccccc3)c3ccccc32)CC1 | inactive: 79% |
| CCCc1nnc(N2C(=O)c3oc4ccc(F)cc4c(=O)c3C2c2ccc(C(=O)OC)cc2)s1 (stereo not drawn) | inactive: 75% |
| COc1ccccc1OCC(=O)Nc1nnc2n1CCS2 | inactive: 85% |
| O=C(C1CCC1)N1CCc2cc(S(=O)(=O)N3CCN(c4ccccc4)CC3)ccc21 | inactive: 63% |
| CC1CCN(c2nnc(-n3cccc3CNc3cccc(F)c3)s2)CC1 | inactive: 78% |
| O=C(NC1CCCCC1)N(Cc1nc2ccccc2c(=O)[nH]1)C1CCCC1 | inactive: 107% |
| O=S(=O)(c1ccc(S(=O)(=O)N(Cc2ccccc2)Cc2ccco2)cc1)N1CCCCCC1 | inactive: 105% |
| CCOc1ccc(-n2cc(C(=O)Nc3ccccc3OCC)c3cc(OC)c(OC)cc3c2=O)cc1 | inactive: 70% |
| COc1cc2ccccc2cc1C(=O)N1CCN(c2nc3c(C)cc(C)cc3s2)CC1 | inactive: 134% |
| CCC(C)NC(=O)Cn1c(=O)n(CC2CCC(C(=O)NC)CC2)c(=O)c2sccc21 (stereo not drawn) | inactive: 70% |
| Cc1cccc(NC(=O)C2CCN(S(=O)(=O)c3cccc4nsnc34)CC2)c1 | inactive: 88% |
| Cc1ccc2nc(-c3ccccc3O)c(Nc3ccccc3C)n2c1 | inactive: 79% |
| CCOC(=O)c1c(NC(=O)CS(=O)(=O)c2ccc(C)cc2)sc2c1CCC(C)C2 (stereo not drawn) | inactive: 73% |
| CC1CCN(C(=O)Cn2cc(SCc3cccc(F)c3)c3ccccc32)CC1 | inactive: 80% |

| Compound | survival |
| --- | --- |
| CCc1ccccc1NC(=O)N1CCN(c2nnc(C)c3c(C)n(-c4ccccc4)nc23)CC1 | inactive: 67% |
| NC(=O)CSc1nnc(-c2ccccc2)o1 | inactive: 103% |
| COc1ccc(CNC(=O)CCc2cn(Cc3cc(C)ccc3C)c3ccccc23)cc1OC | inactive: 69% |
| O=c1cc(-c2ccccc2)nc(SCc2nc(-c3ccc(C(F)(F)F)cc3)no2)[nH]1 | inactive: 150% |
| O=C1OC(Nc2ccccc2C(F)(F)F)c2ccccc21 (stereo not drawn) | inactive: 108% |
| O=C(CCc1ccccc1)NN1C(=O)c2ccccc2C1=O | inactive: 107% |
| CC(C)(C)c1ccc(-c2nc3cc(NC(=O)c4cc5ccccc5o4)ccc3o2)cc1 | inactive: 79% |
| CCCOc1ccc(-c2nc3ccccc3c(=O)o2)cc1 | inactive: 70% |
| COc1ccc(NC(=O)NC2COc3ccccc3C2)c(OC)c1 (stereo not drawn) | inactive: 88% |
| Cc1c(C(=O)Nc2nc(-c3ccc(F)cc3)ns2)oc2ccc(Br)cc12 | inactive: 85% |
| CC(C)c1ccc(NC(=O)C2CCN(S(=O)(=O)c3cccc4nsnc34)CC2)cc1 | inactive: 85% |
| O=C(Cn1ccn(-c2cccc(Cl)c2)c(=O)c1=O)NCCc1ccccc1 | inactive: 84% |
| CN(CC(=O)Nc1cccc(Cl)c1)S(=O)(=O)c1ccc2[nH]c3c(c2c1)CCCC3 | inactive: 92% |
| COc1ccc2c(c1)cc(CNc1ccc(OC)c(OC)c1)c(=O)n2CC(=O)Nc1ccc(F)cc1 | inactive: 81% |
| COc1ccc(N2CCN(C(=O)CCc3c(C)nc4c(-c5ccccc5)c(C)nn4c3C)CC2)cc1 | inactive: 71% |
| COc1ccccc1CNC(=O)CCCCn1c(=O)c2ccccc2n(Cc2c(C)cc(C)cc2C)c1=O | inactive: 96% |
| COc1ccc(CNC(=O)Cn2c(=O)oc3cc(S(=O)(=O)N4CCCCCC4)ccc32)cc1 | inactive: 66% |
| Cc1c(C(=O)Nc2ccc(F)c(F)c2)oc2ccc(S(=O)(=O)N3CCCCC3)cc12 | inactive: 64% |
| Cc1ccccc1Nc1ccc2noc3c2c1C(=O)c1ccccc1-3 | inactive: 101% |
| COc1ccccc1CNC(=O)CCc1c(C)c2ccc(OC)c(C)c2oc1=O | inactive: 80% |
| O=S(=O)(NCC(c1ccco1)S(=O)(=O)c1ccccc1)c1ccccc1 (stereo not drawn) | inactive: 99% |
| Cc1cc(C)n2nc(SCC(=O)Nc3cc(Cl)ccc3C)nc2n1 | inactive: 70% |
